Experimental findings from the RNAGym collection of RNA variant scans (doi:10.7554/elife.90254) are described below.

Read counts are not given, so values of variants with three or more changes are uncertain.

The chains are these.
B1: OR4K15 (parent)
chain: GUUAACGGUCAUAGGCCAUGGAAACUAGGAGCACCAUUUCGCUGCCAGUGAAGAAAUGAACAAAGAAAAUCUGGGCCAGGCAGGCAUCAAAAGAAAUAGUCUUGCGCUCAACCAGAAAGUCUGUAAUCAUUUUAAGGGUA

Variants of B1 are the subject of this series. Kind of series: self-cleavage, relative activity (ratio to wild type); higher = more cleavage; in vitro, sequencing; the parent is a self-cleaving ribozyme.
As for A5U U70C U100A A111G, the self-cleavage came to 0.04.
In the case of A5U C77A G115A it was 0.23; in that of A5U U132C A140C, 1.44; in that of A5G G7A U57C, 1.14.
In the case of A5G U9C A13G A82U A96G it was 0.13; in that of A5G A18G A60G U122G U130C, 2.03; in that of A5G U103C A129U, 0.43.
In the case of A5G U39C U57C A68G A90G A135G, the self-cleavage worked out at 1.63.
In the case of A5U U100C U108C A118G it was 0.04.
In the case of A5G U124C A125U U127C it was 0.31; in that of A5G A30G G41A U132C, 0.71; in that of A5U A22U A68G A92G A96G A116G, 1.84.
On to A5G A52G A54G G138C, for which the self-cleavage is 1.46.
The value for A5G U19C A60G U108C U132C was 0.06; that for A5G U26A A54U was 1.18; that for A5G A64G U87C was 0.52.
As to A5G A30G A54G A96G U103G, the self-cleavage is 0.1.
For A5G U39C A92G U108C A114G, the self-cleavage was determined as 0.05.
Consider A5G G21C U39A U57C A60U A69G, for which the self-cleavage came to 0.53.
The value for A5U G14C A63G A126G was 0.43; that for C6U A64U A116U U124C was 0.17; that for A5G G44A A52G A59G A68G U100C was 1.67.
The value for A5G A59G A63U A68G U102C was 1.5.
A5G U12A A62G A82G A92G A98G: the self-cleavage came out at 0.14.
The value for A5G U38C A60G A125G was 0.41; that for A5G C6U U43C was 2.16; that for A5G A95G U130C was 0.58.
The value for A5G A64U A111U was 0.14; that for A5G A22U A60G A96G U100C U120C was 1.84; that for A5G G44A U49C U102C U122C was 1.59.
In the case of C6U A67G A114G it was 0.83.
Turning to A5G A60G A91C A95G, the self-cleavage is 1.29.
In the case of A5G G14U A59G A91G it was 0.52.
As for A5G U9G G58U A92G A117G, the self-cleavage was 1.14.
With C6U A68G U70C, the self-cleavage was determined as 0.51.
The value for A5G A54C A60G A92G U127A was 0.85; that for A5U U12C A27G was 1.33; that for A5G A64G A91G U100A was 0.67.
In the case of A5U U39A U108A it was 0.11.
In the case of A5G A68U A129G it was 0.99; in that of A5G A56G A125C, 0.62.
Take A5G U43A U57C A60G A92G: the self-cleavage was found to be 0.72.
In the case of A5G A69G A96U A98G A125G it was 0.41.
In the case of A5G A55C A78G A116G U120C A125G U127C it was 0.02; in that of C6U A24G A140G, 0.32; in that of A5G A55G G79U A91G A111G, 0.01.
In the case of A5G U37C A86G it was 1.01; in that of A5G A22G A63G A114G, 0.55; in that of A5G U9C A78U A89U U132C, 0.42.
Consider A5G A33G A140U, for which the self-cleavage stood at 1.06.
A5G U9C U139A: the self-cleavage stood at 0.7.
The value for A5U A18U A27G U72A U120C was 0.19; that for A5G A18U U39C U43C A86G A98G was 0.85.
As to A5U U70C U132C, the self-cleavage is 1.38.
As to C6U C25U U37C A90G A117U, the self-cleavage worked out at 0.84.
Take A5U U9C U38C: the self-cleavage was 1.16.
The value for A5G A23G A86G U130A was 0.77.
The value for A5G A23G U108G was 0.02; that for A5G A117G A140G was 1.5; that for A5G C17U A55G G84A was 0.77.
As to A5G A111G U139G, the self-cleavage was 0.11.
The value for A5G A51G A78U A125U was 0.32; that for A5G A62G A82G A117G was 1.24; that for A5G U38C A54G A66U A96G was 0.64.
Regarding A5G A33G A47G A52U A86U U87A A95G U103C, the self-cleavage came to 1.21.
For A5G A82G A92G, the self-cleavage amounted to 0.92.
The value for A5G A30G A68G A92G A95G A116G was 1.14; that for A5G U43C A51G A55G U87A was 0.97; that for A5G A60U C101A was 0.03.
The value for A5U A68G U97C U103C was 1.12; that for A5U U72C A94G A98U was 0.6; that for A5G U12C A30G was 0.78.
The value for A5G A30C A36G A51G A63G A96G A140G was 0.52; that for A5G U57C A86U A89G A111G was 0; that for A5G U12C A13G A51G G74A A125G was 0.12.
Turning to A5U U103C U131A U132C, the self-cleavage stood at 0.89.
With A5U A92G U132C, the self-cleavage was found to be 0.18.
In the case of A5G A78G A94G U120C it was 0.2; in that of A5G C17U A69G A114G, 0.18; in that of A5G A30U A55G U87G, 0.79.
As to A5G U37C U87C U100C, the self-cleavage came out at 1.18.
For A5G A56G A64G U131C, the self-cleavage came out at 0.68.
Take A5U A94G U108C: the self-cleavage came out at 0.
In the case of A5U A24G A60C A67G U120C it was 1.3; in that of A5U U130C U131C, 0.21.
A5G A59G A94G: the self-cleavage is 1.06.
Consider A5G G7U A11G A24G A56G, for which the self-cleavage came to 0.35.
Turning to A5G A51G A90G A98G, the self-cleavage is 0.1.
As for C6U C71U A78G A96G U124C, the self-cleavage is 0.06.
For the variant A5G A24G U39C U70C, the self-cleavage was 0.65.
In the case of A5G U49A A62G A89G A114C it was 0.05.
Turning to A5G A36U U39A A62G, the self-cleavage stood at 0.93.
In the case of A5G A24G A52G A126G U127A it was 2.22; in that of A5G U9C A78U A98G A110G, 0.07.
The value for A5U A30G U102C U103A A116G was 0.31; that for A5U A54G G83U was 0.28; that for A5G A60U A94U U108C was 0.06.
The value for C6U A55G A68G U130C was 1.21; that for A5G U100G U102C was 1.34.
In the case of A5U U12C A13G A59G, the self-cleavage worked out at 1.32.
In the case of A5G G74A U108C A134G, the self-cleavage came to 0.01.
Take A5G A63G A92G U103C: the self-cleavage is 0.73.
For A5G G50A A117G U122A U127C U132A, the self-cleavage is 0.84.
The value for A5G U102C A126G U127A was 0.91; that for A5G G29A A67U was 0.48.
The value for A5G U26A A27G A116U was 0.08.
The value for A5G A36C A118G was 1.06.
Turning to C6U A52G A69G U70C U122C, the self-cleavage came to 0.25.
As for A5G A52G A60G A96G, the self-cleavage was 0.92.
Consider A5U U39A A66G U72C U133C, for which the self-cleavage worked out at 0.22.
The value for A5G A89G U132C was 1.29; that for A5U U43A U57G G99C was 0.25; that for A5U A96U U100C was 2.
Regarding A5G A33U U49C U102A, the self-cleavage is 0.82.
On to A5G U26C A56G U70A, for which the self-cleavage was found to be 0.5.
A5G A51G A90G A116G: the self-cleavage is 0.18.
In the case of A5G A67G U87C it was 0.9.
The value for A5G G48U A111G U131C G136U was 0; that for A5U A22U A110G U127A was 0.43.
In the case of A5U A55U A94U it was 1.53.
Take A5U U38A A47G U132C: the self-cleavage is 0.96.
Take C6U A60G U70C A91U: the self-cleavage stood at 2.11.
As for A5G A33G U43C A67G U87C, the self-cleavage was 0.21.
In the case of A5G G48A U57C it was 0.88.
With A5G U19C A24U U49A, the self-cleavage is 1.49.
Turning to A5G A89G A95G, the self-cleavage came to 2.55.
The value for C6U G41A A90G was 0.74; that for A5G U19C A30G U87C was 1.2.
In the case of A5G A30G A78U G84A A89G U122C it was 0.2; in that of A5G A55G A96G A114G, 0.34; in that of A5G U9C A55G U87A A92U, 1.06.
In the case of C6U A78C A90G A92G it was 0.25; in that of A5G A59U U108C A117U, 0.06; in that of A5G G15A A59G G75A, 0.2.
For A5G U100C U127C, the self-cleavage stood at 0.94.
In the case of A5G U38A A52G it was 1; in that of A5G U127A U131C U133C, 0.37.
In the case of A5G U37C U43C A60G it was 0.77; in that of A5G A55G U87C A91G, 0.95.
C6U A18G G28U: the self-cleavage is 1.12.
On to C6U A59G A95G, for which the self-cleavage came to 0.94.
Take A5G C32U A54G A69G: the self-cleavage stood at 1.16.
The value for A5G C34A A118G was 0.
Consider C6U A55G U70C, for which the self-cleavage worked out at 0.78.
Turning to A5G A22G G44A U49C A90G A91G, the self-cleavage is 0.92.
In the case of A5G A95G A134G it was 0.9; in that of A5G A67G A110U, 1.29.
In the case of A5G A52G A86G U131C it was 0.77.
In the case of A5U A23G C40U A47U it was 0.17.
Turning to A5G U100C A110G G138U, the self-cleavage was determined as 0.44.
The value for A5G U37C U131C was 1.4; that for A5G A18U A63U was 0.93.
The value for A5G G48A U132C was 1.93.
Consider A5G U87C A96G U127A, for which the self-cleavage was 1.43.
With A5G U72C G73U A96U U108A A129U U130C U131C, the self-cleavage amounted to 0.
In the case of A5G U39A U108A U122C it was 0.01; in that of A5G A78G A82G C121A, 0.36.
As for A5G A117G A129U, the self-cleavage is 1.39.
A5G A36G A68G: the self-cleavage came to 1.38.
Regarding A5U U43C A52G, the self-cleavage came to 1.52.
The value for A5G A67G A96G U108C was 0.09; that for A5G A23G C61G A82U U100C U122G was 0.68; that for A5U A24U A33G A86G was 0.81.
The value for C6U C45U G80C was 0.15.
In the case of A5G A82G U122C U132C it was 0.38.
For A5G A69C A110G, the self-cleavage stood at 0.26.
In the case of A5G A66U A69G, the self-cleavage came out at 1.13.
